Measurements taken from the supplement of paper PMC10126150.
Sequences with one replicate were seen in a single cluster, so their values are uncertain.

System: ATP
Assay: switch fluorescence ratio, 500 uM ATP over buffer (Cy3 cluster intensity, sum of 5 cycles each) (fold (ratio)); higher = stronger signal-on switching upon ATP binding; sequences stand for … in TCGTCGGCAGCGTCAGATGTGTATAAGAGACAGTTTTTTTTTTTTTTTTTTTTTTTTT…TC
Conditions: aptamer strand: ATP DNA aptamer (quencher-CACCTGGGGGAGTATTGCGGAGGAAGG + anchor), 100 nM annealed; ATP concentration: 500 uM; one replicate
Procedure, shortened: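 Between each of five buffer/ATP cycles, the flow-cell was stripped with NaOH and re-annealed. Each cycle imaged Cy3-labelled switching-strand clusters, annealed to 100 nM quencher-labelled ATP aptamer on a modified Illumina MiSeq flow-cell, first in selection buffer and then after 15 min with 500 uM ATP at 22 °C. The fluorescence ratio is summed target-cycle over summed buffer-cycle Cy3 intensity per cluster, averaged per switch-domain sequence, with clusters outside 100-1000 RFU excluded.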
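Note: ATP exposure 15 min at 22 °C before imaging.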

| Sequence | switch fluorescence ratio |
| --- | --- |
| AAGTTAAGTT | 1.02 |
| TGTACGAGCT | 1.03 |
| AGAACTTCGT | 1.02 |
| CAGATAGGAC | 0.995 |
| AGCGGATCTC | 1.08 |
| CGGTTATATT | 0.994 |
| CGATCAACGG | 0.984 |
| AATAGGGCGG | 1.02 |
| TGTATTTATT | 0.987 |
| TTCAAATGCC | 0.994 |
| ATACATTTGA | 1.01 |
| TGTACTCTTT | 0.977 |
| TAAGGCTGTA | 1.02 |
| GACCTGGACC | 1.08 |
| GGCGGGTTGT | 0.969 |
| CGTGCTCTGT | 1.01 |
| TAAGGTGCAT | 1.15 |
| GAACGCTTTT | 1.87 |
| CACTATTTAC | 1.1 |
| AACTTTTGAA | 0.996 |
| ATATGGTTCT | 0.959 |
| TAGTTGATTG | 1 |
| TTGGGAGTGC | 0.988 |

| Sequence | switch fluorescence ratio |
| --- | --- |
| AATTGCTCAA | 1.03 |
| GGATACCCGG | 1.07 |
| GAGGTACCAA | 0.997 |
| GCACATTAGA | 1.04 |
| GGGGCCCCCA | 1.08 |
| TTTCGCCGGG | 1.02 |
| GGTATAAGG | 0.97 |
| GATTTTGGC | 1.06 |
| TCGTTCGGCC | 1.01 |
| GTCGGAGGGC | 1.02 |
| TTGAGGTCTC | 0.969 |
| CGACATCCGA | 1.06 |
| GGTGTCTGGC | 0.977 |
| TGGTACGCC | 1.09 |
| TCGTAGGATA | 1 |
| CGGCTGTTGA | 0.968 |
| TAAGTTCAA | 1.02 |
| CCAGTTAGTA | 1.01 |
| GGATAACAGG | 0.965 |
| GCTAGCTGGG | 1.02 |
| AAATCAAATG | 0.91 |
| AGATATTTGA | 0.971 |
| TGGGTAAGTC | 1.02 |

| Sequence | switch fluorescence ratio |
| --- | --- |
| CGTCTTATAT | 0.994 |
| GACCATGGCG | 1.03 |
| AGTTGCACGC | 1.03 |
| CCCTAATTAT | 0.981 |
| GACCGGG | 0.951 |
| GGGTTGATCA | 0.955 |
| CTTAATACAA | 0.994 |
| CCGTAATTAT | 2.32 |
| CAGCCAACTT | 1.02 |
| CGCTGCGCGC | 1.05 |
| TCGATGAACT | 1.01 |
| CGGCCTTCGC | 1.34 |
| CTCCCGAACG | 1.51 |
| GGAGCTTAGG | 1.04 |
| AGTTAAGTT | 1.01 |
| TATCGTTTTC | 0.987 |
| TTTGACGGAC | 1.17 |
| GGTTGGGCAC | 1.01 |
| CTAAAGACCG | 1.01 |
| ATAACGCTTA | 1.03 |
| GTGACGGGCT | 1.08 |
| GCAAACAGCA | 1.04 |
| AGCTCAGTA | 0.997 |

| Sequence | switch fluorescence ratio |
| --- | --- |
| TTGATGAAAC | 1.21 |
| TTCCGGTGTA | 1.04 |
| CCGCTGAGCC | 2.38 |
| TACCTTGGCC | 1.1 |
| CAGGCACGAC | 1.05 |
| GCGTCCTAGT | 1 |
| ACCGTGACGA | 1.08 |
| AGATTACGTA | 1.11 |
| TACGTCTAGT | 0.985 |
| AAATAGTGAG | 0.982 |
| ATATATCGAT | 0.977 |
| CTGGACGCGC | 1.28 |
| GGCCATTAA | 1.04 |
| TACGGATTTT | 1.03 |
| GTTGGCTACC | 1.02 |
| TCTAGTATGG | 1 |
| ACCATCGA | 0.993 |
| GCTGAAGAGC | 1.02 |
| TCAGCTTGCT | 1.01 |
| CCTAGCGCT | 1.24 |
| CCTTACTCAT | 1.35 |
| CCCCTTCCAG | 1.2 |
| CTTGCGATAA | 2.9 |

| Sequence | switch fluorescence ratio |
| --- | --- |
| TTACGTGCGA | 0.973 |
| GGGAAGCCCG | 1 |
| TGATGTTTCC | 0.987 |
| TCTATCAGCT | 0.99 |
| ACGAGTCACT | 1.09 |
| CCAGGTCCTC | 1.06 |
| GCCGTAGCTT | 1.07 |
| GCTGGTGGCG | 0.999 |
| TTTACGACGT | 1.07 |
| ATTGCTTG | 1.04 |
| CGATTGTACT | 1.08 |
| ACTTCGACTA | 1.11 |
| AGACTGAAGT | 1.01 |
| GCCACCGTGT | 1.03 |
| CCTAAGGTGG | 1.06 |
| ACGTGGGACT | 0.967 |
| GCGAGGCTTA | 1.04 |
| TCATAGCACT | 1.02 |
| GGCTACTAGA | 1 |
| GAATGAAAAA | 1.02 |
| GCCGGATCGC | 1.06 |
| AAAAATTAGG | 1.01 |
| GAGCCGGTGC | 0.983 |

| Sequence | switch fluorescence ratio |
| --- | --- |
| GTTCTTTTCC | 1.03 |
| TAAACGCATG | 1.06 |
| CGGCACAGAC | 2.39 |
| ACGATGGGT | 0.999 |
| TCAGCCAGGC | 1 |
| GGGAAGTGTT | 1.01 |
| TTAATTTCAA | 1 |
| AGCCTTTTCT | 1.01 |
| CCGCTTGAGG | 1.06 |
| GAAACGGGAA | 1.02 |
| ATCGAATCTA | 1 |
| AATAGTTCTT | 1.03 |
| ACCTGTAGAA | 1.13 |
| AAACGTGGAT | 1.02 |
| GTTGGCACAT | 1.02 |
| TAAGCGTCTT | 0.965 |
| AAATACTCTA | 1.17 |
| AGTTGAGGGA | 1.02 |
| AACTCTGTT | 0.996 |
| CTGAGAAATG | 0.988 |
| TTATGGGGT | 0.986 |
| CAACGGGTAG | 0.992 |
| GCACGAATCC | 1.12 |

| Sequence | switch fluorescence ratio |
| --- | --- |
| TCAACACCGG | 1.04 |
| GCATGGACGG | 1.02 |
| TCGTAATGGG | 1.03 |
| TCTGAGGTCC | 1.05 |
| TAATGGTAG | 0.966 |
| GAAACTTGCT | 1.05 |
| TAACAGCATA | 1.11 |
| GTTACTATTA | 1.03 |
| GGCTCTGTCC | 0.992 |
| AAAACGGATA | 0.98 |
| TCCAAAGTG | 1.07 |
| TAGGGGCGTC | 0.956 |
| CTCAGCCTAA | 1.3 |
| GATACATTAA | 1.07 |
| ATGTGAGCCT | 1.01 |
| GTTCCGAGCA | 2.87 |
| TACCAGCAGA | 1.05 |
| TAAGGCAGAT | 1 |
| TCCAGTTCTT | 1.06 |
